The campaign covered roughly 310,000 compounds. About 2,200 (0.71%) showed an effect of 50% or more. The effect is printed as a negative number. This is one part of the list.
These molecules were tested against human ether-à-go-go-related gene (hERG) potassium channel (human, UniProt Q12809) (assay: primary screen, population patch clamp on CHO cells stably expressing hERG).
Chain of human ether-à-go-go-related gene (hERG) potassium channel (Q12809 whole entry, looked up): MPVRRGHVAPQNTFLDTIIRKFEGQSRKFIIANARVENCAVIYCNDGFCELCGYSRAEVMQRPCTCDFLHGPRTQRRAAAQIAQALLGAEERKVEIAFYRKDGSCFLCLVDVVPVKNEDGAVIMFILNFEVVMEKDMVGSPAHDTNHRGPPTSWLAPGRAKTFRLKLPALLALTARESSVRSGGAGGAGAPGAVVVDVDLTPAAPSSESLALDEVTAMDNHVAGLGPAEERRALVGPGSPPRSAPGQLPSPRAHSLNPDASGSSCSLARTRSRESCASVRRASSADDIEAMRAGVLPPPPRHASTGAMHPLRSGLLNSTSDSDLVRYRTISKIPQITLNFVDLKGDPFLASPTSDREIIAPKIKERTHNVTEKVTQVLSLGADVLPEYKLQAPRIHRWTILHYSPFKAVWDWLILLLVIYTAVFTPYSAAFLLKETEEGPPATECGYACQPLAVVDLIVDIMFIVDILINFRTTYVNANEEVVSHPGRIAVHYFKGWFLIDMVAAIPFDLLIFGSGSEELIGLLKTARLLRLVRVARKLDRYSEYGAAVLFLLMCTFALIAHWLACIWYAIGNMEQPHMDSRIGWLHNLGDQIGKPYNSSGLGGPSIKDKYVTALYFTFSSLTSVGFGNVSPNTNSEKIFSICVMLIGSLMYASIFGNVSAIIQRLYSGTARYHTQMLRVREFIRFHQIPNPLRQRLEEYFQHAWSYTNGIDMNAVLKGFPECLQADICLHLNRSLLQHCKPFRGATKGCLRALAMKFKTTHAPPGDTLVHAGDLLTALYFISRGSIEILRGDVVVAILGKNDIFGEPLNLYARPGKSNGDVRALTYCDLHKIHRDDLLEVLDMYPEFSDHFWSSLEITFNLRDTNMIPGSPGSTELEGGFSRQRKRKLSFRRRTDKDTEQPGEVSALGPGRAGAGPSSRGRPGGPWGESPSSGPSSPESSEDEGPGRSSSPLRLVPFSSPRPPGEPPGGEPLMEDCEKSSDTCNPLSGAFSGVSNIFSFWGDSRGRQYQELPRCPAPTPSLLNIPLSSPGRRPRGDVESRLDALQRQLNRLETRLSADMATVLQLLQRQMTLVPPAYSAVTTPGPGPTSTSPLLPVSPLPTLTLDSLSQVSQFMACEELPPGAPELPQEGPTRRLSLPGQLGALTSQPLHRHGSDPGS

| SMILES | hERG current change (%, negative = inhibition) at 1uM [%] |
| --- | --- |
| CC(C)CN(C(=O)COC(=O)CSc1ccc([N+](=O)[O-])cc1)C1CCS(=O)(=O)C1 (stereo not shown) | -22.8 |
| CC(C)Oc1ccc(C(=O)Nc2ccccc2N2CCCC2)cc1 | 3.44 |
| CCCCN(C)Cc1c(C)[nH]c2ccc(Cl)cc2c1=O | -6.49 |
| O=[N+]([O-])c1cc(-n2cnnn2)c(O)c([N+](=O)[O-])c1 | 15.4 |
| Cc1cccc(NS(=O)(=O)c2ccc3c(c2)CCC(=O)N3)c1 | 10.6 |
| COc1cc2c(C(=O)NCCN(C)C)cn(CC(C)C)c(=O)c2cc1OC | 12.2 |
| O=C(CCc1ccccc1)Nc1ccc(NS(=O)(=O)c2ccccc2)cc1 | 10.5 |
| CCN(CC)C(=O)c1ccccc1NC(=O)c1ccccc1C | 19.7 |
| Cc1ccc2oc(C(=O)NCc3ccccc3)cc(=O)c2c1 | 11.4 |
| CCN(CC)C(=O)c1ccc(NC(=O)c2ccc(N3CCCC3=O)cc2)cc1 | 12.8 |
| CCOC(=O)C1CCN(C(=O)Cc2cccc3ccccc23)CC1 | 5.1 |
| O=S(=O)(c1ccccc1)[C@@]1(c2ccc(Br)cc2)C[C@@H]2ON=C(c3ccccc3)[C@@H]2C1 | -3.85 |
| CCS(=O)(=O)N1CCC(C(=O)NCc2ccc3c(c2)OCO3)CC1 | 6.78 |
| CCN(CC)CCn1c2ccc(F)cc2c2nc(C)sc21.Cl | -15.1 |
| COc1ccc(CC(=O)OCC(=O)c2c(N)n(C)c(=O)n(C)c2=O)cc1OC | 8.06 |
| Cc1noc(C)c1S(=O)(=O)N1CCCCC1 | 11.5 |
| CCCOc1ccc(S(=O)(=O)n2cc(F)c(=O)[nH]c2=O)cc1 | 18.2 |
| O=C(NC1(O)C(=O)c2ccccc2C1=O)c1ccc(C(F)(F)F)cc1 | 10.3 |
| CCCn1c(C)cc(C(=O)COC(=O)c2ccc[nH]c2=O)c1C | 11.6 |
| C#CCOc1ccc(OC)cc1C(c1c(C)[nH][nH]c1=O)c1c(C)[nH][nH]c1=O | 13.5 |
| COc1ccc(CNC(=O)C(C)OC(=O)CO/N=C(\C)c2ccc3c(c2)OCO3)cc1 (stereo not shown) | 11 |
| CC1CCC(C(C)C)C(OC(=O)Cn2c(-c3ccc(Br)cc3)[n+](C)c3ccccc32)C1.[Cl-] (stereo not shown) | -60.7 |

| SMILES | hERG current change (%, negative = inhibition) at 1uM [%] |
| --- | --- |
| COc1ccc(COC(=O)Nc2cn(C)nc2C(F)(F)F)cc1 | 3.22 |
| O=C(/C=C/c1ccccc1)NC(=S)NNC(=O)c1ccco1 | 18.1 |
| CCN(C(=O)COC(=O)c1cc2ccccc2cc1O)C1CCS(=O)(=O)C1 (stereo not shown) | 4.98 |
| CC(C)[C@H](NC(=O)C1CCN(S(=O)(=O)c2ccc(F)cc2)CC1)C(=O)NCc1ccncc1 | 17 |
| COc1ccc(NC(=O)CC2C(=O)N(Cc3ccccc3)C(=S)N2CCN2CCOCC2)cc1 (stereo not shown) | 10 |
| CC(C(=O)NC1=NCCS1)N1C(=O)C2CC=CCC2C1=O (stereo not shown) | 11.8 |
| CC(=O)N1C(Nc2ccc(Cl)cc2)CCN1c1ccccc1 (stereo not shown) | 10.6 |
| O=C(N/N=C/c1ccc(-c2ccccc2[N+](=O)[O-])o1)[C@H]1C[C@@H]1c1ccccc1 | 19 |
| Cc1cccc(NC(=O)CSc2nc(=O)n3ccccc3n2)c1C | 11.5 |
| Cc1c(NC(=O)c2ccc3c(c2)OCO3)cccc1-c1nc2ncccc2o1 | 14.5 |
| Cc1ccc(NCC(=O)N/N=C\c2ccc([N+](=O)[O-])o2)cc1 | -1.98 |
| Cc1ccc(-c2ccc(SCC(=O)N3CCCc4ccccc43)nn2)cc1 | -0.2 |
| N/C(=N\OC(=O)c1ccc(Cl)c([N+](=O)[O-])c1)c1ccccc1 | 18 |
| C=CCn1cnc2c(nnn2-c2ccc(C)c(C)c2)c1=O | 5.5 |
| Nc1nc(SCCN2C(=O)c3ccccc3C2=O)n[nH]1 | -33.6 |
| CCC(c1ccccc1)c1nnc(NC(=O)c2ccco2)s1 (stereo not shown) | 14.1 |
| CCCC1CCC(C(=O)n2nc(N)c3cc4ccc(OC)cc4nc32)CC1 (stereo not shown) | 11.9 |
| CCOc1ccc(N/C(C)=C\C(=O)c2ccc3c(c2)OCCO3)cc1 | -1.61 |
| Cc1ccc(C)c(NC2=NCC(=O)N2C2CCCCC2)c1 | 15 |
| CSC1=C(C#N)C(c2ccccc2C)C(C#N)=C(N)N1 (stereo not shown) | 9.04 |
| CCOC(=O)c1[nH]nc(N)c1NC(=O)c1ccc(Cl)cc1Cl | 8.3 |
| COCCNC(=S)N1CCC(NC(=O)c2ccco2)CC1 | 6.24 |

| SMILES | hERG current change (%, negative = inhibition) at 1uM [%] |
| --- | --- |
| CCOC(=O)c1ccc2c(c1)nc(-c1ccc(F)cc1)c1nccn12 | 7.83 |
| O=C(NC1CCCCC1)C1CC(=O)N(CCc2ccccc2)C1 (stereo not shown) | -7.54 |
| C/C1=C\[C@@H](C)C/C=C/[C@H]2[C@@H]3O[C@]3(C)[C@@H](C)[C@H]3[C@H](Cc4c[nH]c5ccccc45)NC(=O)[C@]32C(=O)/C=C/C(=O)[C@@H]1O | 13.7 |
| CC(C)CC(c1nnnn1C1CCCCC1)N1CCN(c2ncccn2)CC1 (stereo not shown) | 11.6 |
| Cc1cc(C(=O)Nc2ccc3c(c2)OCCO3)co1 | 12.5 |
| Clc1ccc(-c2nnc3sc(-c4ccc(Br)o4)nn23)c(Cl)c1 | 9.59 |
| Cc1nc(NS(=O)(=O)c2ccccc2)sc1NC(=O)Nc1ccccc1 | 19.3 |
| CCCc1ccc2oc(C(=O)N3CCN(c4cnccn4)CC3)c(C)c2c1 | -5.34 |
| CCCNC(=O)c1ccc(C)c(NC(=O)C2=C(C)OCCS2)c1 | 12.2 |
| O=C1NCC(COc2cccc3ccccc23)O1 (stereo not shown) | 16.5 |
| COc1ccc(NC(=O)CN(C)C(=O)c2cccc3ccccc23)cc1 | 8.34 |
| Cn1cc(/C=C(\C#N)C(=O)Nc2ncc(Cc3ccc(Cl)cc3)s2)c2ccccc21 | 8.9 |
| Cc1cc(CNC(=O)c2cc(COc3c(F)cccc3F)on2)nn1C | 13.9 |
| Cc1cnc(CNC(=O)CC2C(=O)NCCN2Cc2cccc(F)c2F)cn1 (stereo not shown) | 13.5 |
| Cc1nn(-c2cccc(Cl)c2)nc1C(=O)O | 4.45 |
| C=C1CCC[C@]2(C)C[C@H]3OC(=O)C(CN(Cc4ccc(OC)c(OC)c4)CC(C)O)[C@H]3CC12 (stereo partly shown) | 4.47 |
| Cc1ccc(OCc2nnc(SCC(=O)N3CCOCC3)n2C)cc1 | 18.4 |
| C=CCOc1ccccc1CNc1ccc2c(c1)OCCO2.Cl | 4.19 |
| CC(=O)Nc1ccc(S(=O)(=O)NCCC(=O)NNC(=O)c2ccccc2O)cc1 | 1.2 |
| CSc1ccccc1NC(=O)CSc1nnc(COc2ccccc2)o1 | 2.68 |
| CN1C(=O)c2ccc(NC(=O)CCS(=O)(=O)c3ccccc3)cc2C1=O | -1.99 |
| CCCCc1cc(=O)oc2c(C)c(OCC(=O)NCCN3CCOCC3)ccc12 | -77.1 |

| SMILES | hERG current change (%, negative = inhibition) at 1uM [%] |
| --- | --- |
| CCOC(=O)C1CCCN(c2nc3ccccc3nc2C(C#N)C(=O)OC(C)C)C1 (stereo not shown) | 16.1 |
| CC(C)C(=O)NNC(=O)CSc1ncnc2c1cnn2-c1ccccc1Cl | 13.9 |
| O=C(NN1CCOCC1)c1cc(-c2ccc(Cl)c(Cl)c2)nc2ccccc12 | 15.3 |
| O=C(O)CCN1C(=O)C2C3C=CC(C3)C2C1=O (stereo not shown) | 14.6 |
| Cc1ccc(C)c2nc3sc(C(=O)N4CCOCC4)c(N)c3cc12 | 14.7 |
| O=C(O)c1c(C(=O)O)c(-c2ccc(Br)cc2)n2c1CSC2 | 11.8 |
| CCCC(=O)Nc1ccc2oc(-c3ccncc3)nc2c1 | 6.75 |
| COc1ccc(OC)c(C(=O)NC(CC(N)=O)c2ccc(N3CCCCCC3)c([N+](=O)[O-])c2)c1 (stereo not shown) | 4.41 |
| N#CCc1c(C#N)c(N)nc(N2CCCC(CO)C2)c1C#N (stereo not shown) | 3.2 |
| O=C(NCCCN1CCOCC1)c1cc(-c2cccc(O)c2)on1 | 10.2 |
| O=C1c2cccc3cccc(c23)C(=O)N1Cc1ccco1 | 15 |
| N#Cc1cc(-c2ccc(Cl)cc2)cn(Cc2c(Cl)cccc2Cl)c1=O | -1.66 |
| COc1ccc2c(c1[N+](=O)[O-])CCC/C2=N/OC(=O)c1ccccc1SC | 8.44 |
| COc1ccc(C(=O)Nc2cc3c(cc2C#N)OCO3)cc1S(=O)(=O)NCc1ccco1 | 4.44 |
| O=C(Nc1ccc2c(c1)Cc1ccccc1-2)c1ccncc1 | 13.6 |
| COc1ccc(CC(=O)Nc2ccc3nc(C)sc3c2)cc1OC | 6.17 |
| O/N=C/c1ccccc1OCc1ccccc1F | 7.63 |
| CCOc1nc(CC)nc(NC(=O)NS(=O)(=O)c2ccccc2Cl)n1 | 14.9 |
| COc1ccc(C(=O)NCCN2CCCC2)cc1.Cl | 11 |
| CC(C)(C)c1ccc(C(=O)NNc2ncccc2-n2cccc2)cc1 | 14.4 |
| Cc1csc(NC(=O)C2CCCN(S(=O)(=O)c3ccc4c(c3)oc(=O)n4C)C2)n1 (stereo not shown) | 8.68 |
| COc1cc(C(=O)NC2CC(C)(C)NC(C)(C)C2)cc(OC)c1OC | 18.5 |
